Consider 1 compound from PubChem BioAssay (NCI).

Test systems include NCI-H226 lung; SR leukemia; HOP-92 NSCLC; UACC-257 melanoma; CCRF-CEM leukemia; NCI-H23 lung.
Common to all, as to assay: NCI tumour cell line growth inhibition, 48 h

SMILES strings stand for the structures.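 The compound was tested at five concentrations on cells cultured in 96-well plates, with a 48-hour exposure period. At the GI50, growth is halved. TGI: concentration producing complete growth inhibition.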 Active and inactive are the calls of the source.

Turning to `Fc1ccc(-c2ncn(C3CCNCC3)c2-c2ccnc(Oc3cccc(C(F)(F)F)c3)n2)cc1`, the GI50 result with NCI-H226 lung, in the experiment with SR leukemia, in the experiment with HOP-92 NSCLC, in the experiment on UACC-257 melanoma, in the experiment with CCRF-CEM leukemia and in the experiment with NCI-H23 lung was “inactive” in each case. Also, the TGI in the experiment on NCI-H226 lung turned out to be 8.16 µM; in the experiment with SR leukemia it was 10.3 µM; in the experiment on HOP-92 NSCLC, 6.28 µM; with UACC-257 melanoma, 7.67 µM; in the experiment on CCRF-CEM leukemia it was 12.7 µM; in the experiment with NCI-H23 lung, 10.2 µM.
